The supplement of paper PMC12217912
Some of the results follow. Sequences were assembled here from the parent chain. Inactive controls read about 0.05.

B1: TEV protease; numbered along this chain (parent)
chain: MGESLFKGPRDYNPISSSICHLTNESDGHTTSLYGIGFGPFIITNKHLFRRNNGTLVVQSLHGVFKVKDTTTLQQHLVDGRDMIIIRMPKDFPPFPQKLKFREPQREERICLVTTNFQTKSMSSMVSDTSCTFPSGDGIFWKHWIQTKDGQCGSPLVSTRDGFIVGIHSASNFTNTNNYFTSVPKNFMELLTNQEAQQWVSGWRLNADSVLWGGHKVFMVKPEEPFQPVKEATQL

Variants of: B1
Test: raw area under fraction-flipped curve 0-4 h after induction (AUC4h, not background-subtracted), DNA-recorder readout of cleavage of the substrate (dimensionless); higher = more cleavage of the substrate by the protease variant
Settings: temperature: 34 °C; time window: 0-4 h after rhamnose induction
Protocol: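 In vivo DNA recorder in E. coli TOP10(DE3) ΔrhaA at 34 °C. Each TEVp single-site mutant (parent TEVp 0) is paired with a single-site variant of the 7-mer TEVs (canonical ENLYFQ|S). The substrate sits between flexible linkers in a Bxb1-sfGFP-TEVs-SsrA fusion, so cleavage stabilises Bxb1 and speeds flipping of a recombination array, read by NGS. The value is the raw area under the fraction-flipped curve over 0-4 h after rhamnose induction (AUC4h), with ≥20 reads per time point. It is not background-subtracted; inactive controls average about 0.047.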
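Further: Bxb1 expression induced with 0.2% (w/v) L-rhamnose at OD600 near 0.5, cultures sampled hourly, flipped fraction per protease–substrate barcode pair counted by paired-end Illumina sequencing.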

Variant | area with substrate ENAYFQS | area with substrate ENDYFQS | area with substrate ENEYFQS | area with substrate ENFYFQS | area with substrate ENGYFQS | area with substrate ENHYFQS | area with substrate ENKYFQS | area with substrate ENNYFQS | area with substrate ENPYFQS | area with substrate ENQYFQS | area with substrate ENRYFQS | area with substrate ENSYFQS | area with substrate ENTYFQS | area with substrate ENVYFQS | area with substrate ENWYFQS | area with substrate ENYYFQS | area with substrate ENMYFQS | area with substrate ENCYFQS | area with substrate ENIYFQS
K148G | 0.0686 | 0.0635 | 0.066 | 0.0524 | 0.0671 | 0.0667 | 0.0654 | 0.0702 | 0.065 | 0.0673 | 0.0558 | 0.0641 | 0.065 | 0.071 | 0.0608 | 0.0448 | – | – | –
I139A | 0.0686 | 0.0511 | 0.0495 | – | – | 0.182 | – | 0.0604 | – | 0.0665 | – | 0.07 | – | 0.0545 | – | 0.048 | 0.0818 | – | –
I139S | 0.0817 | 0.0575 | 0.062 | – | 0.0505 | – | 0.0455 | 0.0642 | – | 0.0627 | 0.0587 | 0.0568 | – | – | 0.0546 | 0.08 | 0.0856 | 0.0548 | 0.129
D137R | 0.0666 | 0.0703 | 0.0685 | 0.048 | – | 0.0511 | – | 0.0722 | – | 0.0434 | – | 0.065 | – | 0.0639 | 0.0859 | 0.0517 | – | 0.0442 | 0.0797
D137N | 0.0696 | 0.0637 | 0.0574 | 0.0731 | 0.0561 | – | 0.07 | 0.0706 | 0.0499 | 0.0603 | 0.0585 | 0.0622 | 0.0662 | 0.071 | 0.0375 | 0.0786 | 0.0907 | 0.0744 | 0.113
S135A | 0.0263 | 0.0631 | 0.062 | – | 0.0525 | 0.0562 | 0.064 | 0.0556 | 0.0532 | 0.0529 | 0.0621 | 0.0578 | 0.0745 | 0.0669 | 0.0543 | – | 0.0578 | 0.0662 | 0.0678
T129W | 0.0667 | 0.0589 | 0.0547 | 0.057 | 0.0642 | 0.0641 | 0.0534 | – | 0.0574 | 0.056 | 0.0531 | 0.0685 | 0.0794 | 0.0715 | 0.0606 | – | – | 0.0609 | 0.113
T129I | 0.0674 | 0.0432 | – | 0.0474 | 0.057 | – | – | – | – | 0.0547 | 0.0491 | 0.0674 | 0.067 | – | – | – | – | 0.0655 | –
T147N | 0.056 | 0.0555 | 0.0802 | 0.0694 | – | 0.0568 | – | 0.079 | 0.0657 | 0.061 | 0.0593 | 0.0615 | 0.0604 | 0.0624 | 0.0571 | – | 0.0493 | 0.0537 | –
T147E | 0.0593 | 0.065 | 0.0726 | 0.0534 | 0.0628 | 0.0499 | 0.0764 | 0.0573 | – | 0.0584 | 0.0626 | 0.0592 | 0.0467 | 0.0573 | 0.0044 | 0.0454 | 0.0791 | 0.0569 | 0.0657
L156W | 0.0502 | 0.0591 | 0.0663 | 0.0618 | 0.0561 | 0.0573 | 0.0597 | 0.0567 | 0.0505 | 0.0623 | 0.0572 | 0.0591 | 0.0603 | 0.067 | 0.0322 | 0.0535 | 0.056 | 0.0624 | 0.0516
H143C | 0.0634 | – | 0.0499 | 0.0669 | 0.035 | 0.0651 | 0.0639 | 0.0451 | – | 0.0593 | 0.0768 | 0.0591 | 0.0687 | 0.0638 | 0.0354 | – | – | – | –
